Source: the supplement of paper PMC8728848
Some of the results follow.

What was measured:
Assay in all cases: glycan array binding signal (z-score within array); higher = stronger binding
Settings in all cases: glycan notation: IUPAC condensed, linker removed
[1] = target: GlcNAc(b1-2)Gal(b1-3)GalNAc
Outline: (§1)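 Negative Z-scores can be read as non-binding. The Z-score is calculated within each array and then averaged across arrays of one protein sequence at different concentrations or buffers and across linkers. Arrays, 3228 in all, were curated from the Consortium for Functional Glycomics database and kept only where the protein sequence was available.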

[2] = target: GlcNAc(b1-2)Man(a1-3)[GlcNAc(b1-2)Man(a1-6)]Man(b1-4)GlcNAc(b1-4)GlcNAc
Outline: as §1

[3] = target: GlcNAc(b1-2)Man(a1-3)[GlcNAc(b1-2)Man(a1-6)]Man(b1-4)GlcNAc(b1-4)[Fuc(a1-6)]GlcNAc
Outline: as §1

[4] = target: GlcNAc(b1-2)Man(a1-3)[GlcNAc(b1-4)][GlcNAc(b1-2)Man(a1-6)]Man(b1-4)GlcNAc(b1-4)GlcNAc
Outline: as §1

[5] = target: GlcNAc(b1-2)Man(a1-3)[GlcNAc(b1-4)][GlcNAc(b1-2)Man(a1-6)]Man(b1-4)GlcNAc(b1-4)[Fuc(a1-6)]GlcNAc
Outline: as §1

[6] = target: GlcNAc(b1-2)[GlcNAc(b1-4)]Man(a1-3)[GlcNAc(b1-2)Man(a1-6)]Man(b1-4)GlcNAc(b1-4)GlcNAc
Outline: as §1

[7] = target: GlcNAc(b1-2)[GlcNAc(b1-4)]Man(a1-3)[GlcNAc(b1-4)][GlcNAc(b1-2)Man(a1-6)]Man(b1-4)GlcNAc(b1-4)GlcNAc
Outline: as §1

[8] = target: GlcNAc(b1-2)[GlcNAc(b1-4)]Man(a1-3)[GlcNAc(b1-4)][GlcNAc(b1-2)[GlcNAc(b1-6)]Man(a1-6)]Man(b1-4)GlcNAc(b1-4)GlcNAc
Outline: as §1

[9] = target: GlcNAc(b1-2)[GlcNAc(b1-4)]Man(a1-3)[GlcNAc(b1-4)][GlcNAc(b1-2)[GlcNAc(b1-6)]Man(a1-6)]Man(b1-4)GlcNAc(b1-4)[Fuc(a1-6)]GlcNAc
Outline: as §1

[10] = target: GlcNAc(b1-2)[GlcNAc(b1-6)]Man(a1-6)[GlcNAc(b1-2)Man(a1-3)]Man(b1-4)GlcNAc(b1-4)GlcNAc
Outline: as §1

[11] = target: GlcNAc(b1-2)[GlcNAc(b1-6)]Man(a1-6)[GlcNAc(b1-2)Man(a1-3)]Man(b1-4)GlcNAc(b1-4)[Fuc(a1-6)]GlcNAc
Outline: as §1

[12] = target: GlcNAc(b1-2)[GlcNAc(b1-6)]Man(a1-6)[GlcNAc(b1-4)][GlcNAc(b1-2)Man(a1-3)]Man(b1-4)GlcNAc(b1-4)GlcNAc
Outline: as §1

GlcNAc(b1-3)Fuc = target: GlcNAc(b1-3)Fuc
Outline: as §1

GlcNAc(b1-3)Gal = target: GlcNAc(b1-3)Gal
Outline: as §1

[13] = target: GlcNAc(b1-3)Gal(b1-3)GalNAc
Outline: as §1

GlcNAc(b1-3)Gal(b1-4)Glc = target: GlcNAc(b1-3)Gal(b1-4)Glc
Outline: as §1

[14] = target: GlcNAc(b1-3)Gal(b1-4)GlcNAc
Outline: as §1

[15] = target: GlcNAc(b1-3)Gal(b1-4)GlcNAc(b1-2)Man(a1-3)[GlcNAc(b1-3)Gal(b1-4)GlcNAc(b1-2)Man(a1-6)]Man(b1-4)GlcNAc(b1-4)GlcNAc
Outline: as §1

[16] = target: GlcNAc(b1-3)Gal(b1-4)GlcNAc(b1-2)Man(a1-3)[GlcNAc(b1-3)Gal(b1-4)GlcNAc(b1-2)Man(a1-6)]Man(b1-4)GlcNAc(b1-4)[Fuc(a1-6)]GlcNAc
Outline: as §1

[17] = target: GlcNAc(b1-3)Gal(b1-4)GlcNAc(b1-2)[GlcNAc(b1-3)Gal(b1-4)GlcNAc(b1-6)]Man(a1-6)[GlcNAc(b1-3)Gal(b1-4)GlcNAc(b1-2)Man(a1-3)]Man(b1-4)GlcNAc(b1-4)GlcNAc
Outline: as §1

[18] = target: GlcNAc(b1-3)Gal(b1-4)GlcNAc(b1-3)Gal(b1-4)GlcNAc
Outline: as §1

[19] = target: GlcNAc(b1-3)Gal(b1-4)GlcNAc(b1-3)Gal(b1-4)GlcNAc(b1-2)Man(a1-3)[GlcNAc(b1-3)Gal(b1-4)GlcNAc(b1-3)Gal(b1-4)GlcNAc(b1-2)Man(a1-6)]Man(b1-4)GlcNAc(b1-4)GlcNAc
Outline: as §1

[20] = target: GlcNAc(b1-3)Gal(b1-4)GlcNAc(b1-3)Gal(b1-4)GlcNAc(b1-2)Man(a1-3)[GlcNAc(b1-3)Gal(b1-4)GlcNAc(b1-3)Gal(b1-4)GlcNAc(b1-2)Man(a1-6)]Man(b1-4)GlcNAc(b1-4)[Fuc(a1-6)]GlcNAc
Outline: as §1

[21] = target: GlcNAc(b1-3)Gal(b1-4)GlcNAc(b1-3)Gal(b1-4)GlcNAc(b1-2)[GlcNAc(b1-3)Gal(b1-4)GlcNAc(b1-3)Gal(b1-4)GlcNAc(b1-6)]Man(a1-6)[GlcNAc(b1-3)Gal(b1-4)GlcNAc(b1-3)Gal(b1-4)GlcNAc(b1-2)Man(a1-3)]Man(b1-4)GlcNAc(b1-4)[Fuc(a1-6)]GlcNAc
Outline: as §1

[22] = target: GlcNAc(b1-3)Gal(b1-4)GlcNAc(b1-3)Gal(b1-4)GlcNAc(b1-3)Gal(b1-4)GlcNAc(b1-2)Man(a1-3)[GlcNAc(b1-3)Gal(b1-4)GlcNAc(b1-3)Gal(b1-4)GlcNAc(b1-3)Gal(b1-4)GlcNAc(b1-2)Man(a1-6)]Man(b1-4)GlcNAc(b1-4)GlcNAc
Outline: as §1

[23] = target: GlcNAc(b1-3)Gal(b1-4)GlcNAc(b1-3)Gal(b1-4)GlcNAc(b1-3)Gal(b1-4)GlcNAc(b1-2)Man(a1-3)[GlcNAc(b1-3)Gal(b1-4)GlcNAc(b1-3)Gal(b1-4)GlcNAc(b1-3)Gal(b1-4)GlcNAc(b1-2)Man(a1-6)]Man(b1-4)GlcNAc(b1-4)[Fuc(a1-6)]GlcNAc
Outline: as §1

[24] = target: GlcNAc(b1-3)Gal(b1-4)GlcNAc(b1-3)Gal(b1-4)GlcNAc(b1-3)Gal(b1-4)GlcNAc(b1-2)[GlcNAc(b1-3)Gal(b1-4)GlcNAc(b1-3)Gal(b1-4)GlcNAc(b1-3)Gal(b1-4)GlcNAc(b1-6)]Man(a1-6)[GlcNAc(b1-3)Gal(b1-4)GlcNAc(b1-3)Gal(b1-4)GlcNAc(b1-3)Gal(b1-4)GlcNAc(b1-2)Man(a1-3)]Man(b1-4)GlcNAc(b1-4)[Fuc(a1-6)]GlcNAc
Outline: as §1

[25] = target: GlcNAc(b1-3)Gal(b1-4)GlcNAc(b1-3)Gal(b1-4)GlcNAc(b1-3)Gal(b1-4)GlcNAc(b1-3)Gal(b1-4)GlcNAc(b1-2)Man(a1-3)[GlcNAc(b1-3)Gal(b1-4)GlcNAc(b1-3)Gal(b1-4)GlcNAc(b1-3)Gal(b1-4)GlcNAc(b1-3)Gal(b1-4)GlcNAc(b1-2)Man(a1-6)]Man(b1-4)GlcNAc(b1-4)GlcNAc
Outline: as §1

[26] = target: GlcNAc(b1-3)Gal(b1-4)GlcNAc(b1-3)Gal(b1-4)GlcNAc(b1-3)Gal(b1-4)GlcNAc(b1-3)Gal(b1-4)GlcNAc(b1-2)Man(a1-3)[GlcNAc(b1-3)Gal(b1-4)GlcNAc(b1-3)Gal(b1-4)GlcNAc(b1-3)Gal(b1-4)GlcNAc(b1-3)Gal(b1-4)GlcNAc(b1-2)Man(a1-6)]Man(b1-4)GlcNAc(b1-4)[Fuc(a1-6)]GlcNAc
Outline: as §1

[27] = target: GlcNAc(b1-3)Gal(b1-4)GlcNAc(b1-3)Gal(b1-4)GlcNAc(b1-3)Gal(b1-4)GlcNAc(b1-3)Gal(b1-4)GlcNAc(b1-2)[GlcNAc(b1-3)Gal(b1-4)GlcNAc(b1-3)Gal(b1-4)GlcNAc(b1-3)Gal(b1-4)GlcNAc(b1-3)Gal(b1-4)GlcNAc(b1-6)]Man(a1-6)[GlcNAc(b1-3)Gal(b1-4)GlcNAc(b1-3)Gal(b1-4)GlcNAc(b1-3)Gal(b1-4)GlcNAc(b1-3)Gal(b1-4)GlcNAc(b1-2)Man(a1-3)]Man(b1-4)GlcNAc(b1-4)[Fuc(a1-6)]GlcNAc
Outline: as §1

[28] = target: GlcNAc(b1-3)Gal(b1-4)GlcNAc(b1-3)Gal(b1-4)GlcNAc(b1-3)GalNAc
Outline: as §1

[29] = target: GlcNAc(b1-3)Gal(b1-4)GlcNAc(b1-3)GalNAc
Outline: as §1

[30] = target: GlcNAc(b1-3)Gal(b1-4)GlcNAc(b1-3)[GlcNAc(b1-3)Gal(b1-4)GlcNAc(b1-3)]GalNAc
Outline: as §1

[31] = target: GlcNAc(b1-3)Gal(b1-4)GlcNAc(b1-6)[Gal(b1-3)]GalNAc
Outline: as §1

[32] = target: GlcNAc(b1-3)Gal(b1-4)GlcNAc(b1-6)[GlcNAc(b1-3)Gal(b1-3)]GalNAc
Outline: as §1

[33] = target: GlcNAc(b1-3)Gal(b1-4)GlcNAc(b1-6)[GlcNAc(b1-3)]Gal(b1-4)GlcNAc
Outline: as §1

GlcNAc(b1-3)GalNAc = target: GlcNAc(b1-3)GalNAc
Outline: as §1

B1: PX14343A-bvu-539-29-539 (Bacteroides vulgatus) (protein)
chain: DSLTESSSNTFWQTPDDALMALASCYDALQSNQLYNSDQYSLGPLYMDCISDNGGHFNWSGWMEGYDMAMGIHTPSSSIIGSYWKDCYEVISRCNVLIANIDRVDMDASQKAIYQAEAKTIRALMYINLTMTYQDVPFLTAPLTIDEAECEKTDRAAIVAHVMTDLQDAAEVLPQNASSRGHITKGAALSLLGRVALYNEKWDDAIAAYKQVQGLGYSLDPSYAKLFTQSGETSPEIIFAVRYEGPGMSEGAAFNAHWNTPLEAMNGTIDLADAYYCKDGKPTTDTKIAELNGGGGLDVSKPNPAHFENRDPRLYSTLFVPGMLWNGKGGIDTSASNPYANVYGGAAASLSTVYVYKYFDPTDTSNSWDNGQDFYVVRYAEVLLSLAEAMVQKGGYVYSDVTALVNEVRQRADVNMPTVEEVEGTSLSKDELLEVIKHERRVELAFEGLRLFDLYRWKELDKAVANIENERTMYGLAYEARKFNGERDYVWPLPTAELDTNKKLVQHDLWK
B1 was tested, and the “glycan array binding signal (z-score)” value [1] was -0.404, the “glycan array binding signal (z-score)” value [2] was -0.099 and the “glycan array binding signal (z-score)” value [3] was -0.074. For the same binder, the “glycan array binding signal (z-score)” value [4] was -0.3, the “glycan array binding signal (z-score)” value [5] was -0.202 and the “glycan array binding signal (z-score)” value [6] was -0.16. The “glycan array binding signal (z-score)” value [7] was -0.213, the “glycan array binding signal (z-score)” value [8] was -0.087 and the “glycan array binding signal (z-score)” value [9] was -0.396. For the same binder, the “glycan array binding signal (z-score)” value [10] was -0.402, the “glycan array binding signal (z-score)” value [11] was -0.217 and the “glycan array binding signal (z-score)” value [12] was -0.208. For the same binder, the “glycan array binding signal (z-score)” value (GlcNAc(b1-3)Fuc) was -0.112, the “glycan array binding signal (z-score)” value (GlcNAc(b1-3)Gal) was -0.374 and the “glycan array binding signal (z-score)” value [13] was -0.175. The “glycan array binding signal (z-score)” value (GlcNAc(b1-3)Gal(b1-4)Glc) was -0.078, the “glycan array binding signal (z-score)” value [14] was -0.44 and the “glycan array binding signal (z-score)” value [15] was -0.114. For the same binder, the “glycan array binding signal (z-score)” value [16] was 0.091, the “glycan array binding signal (z-score)” value [17] was -0.094 and the “glycan array binding signal (z-score)” value [18] was -0.072. The “glycan array binding signal (z-score)” value [19] was 0.153, the “glycan array binding signal (z-score)” value [20] was -0.295 and the “glycan array binding signal (z-score)” value [21] was 0.035. For the same binder, the “glycan array binding signal (z-score)” value [22] was -0.157, the “glycan array binding signal (z-score)” value [23] was -0.151 and the “glycan array binding signal (z-score)” value [24] was -0.241. For the same binder, the “glycan array binding signal (z-score)” value [25] was 2.27, the “glycan array binding signal (z-score)” value [26] was 0.355 and the “glycan array binding signal (z-score)” value [27] was 0.319. For the same binder, the “glycan array binding signal (z-score)” value [28] was 0.227, the “glycan array binding signal (z-score)” value [29] was -0.331 and the “glycan array binding signal (z-score)” value [30] was -0.113. The “glycan array binding signal (z-score)” value [31] was -0.357, the “glycan array binding signal (z-score)” value [32] was -0.363 and the “glycan array binding signal (z-score)” value [33] was -0.311. For the same binder, the “glycan array binding signal (z-score)” value (GlcNAc(b1-3)GalNAc) was -0.233.
